Data on 85 molecules can be found in ChEMBL document CHEMBL4888484, “Replenishing the malaria drug discovery pipeline: Screening and hit evaluation of the MMV Hit Generation Library 1 (HGL1) against asexual blood stage Plasmodium falciparum ,using a nano luciferase reporter read-out” (2022).

Out of some 150,000 compounds screened, about 540 (0.36%) showed an effect of 50% or more. Some of the results follow.

The term % Inhibition denotes the drop in the measured response relative to a control, in per cent.

This assay deals with Plasmodium falciparum. As to the kind of experiment: Primary screen in NF54 nanoGlo assay, in single point, at 2uM, 72h; a lower Z score goes with more inhibition. It counts as functional, Erythrocyte. As to conditions: timepoint 72 hour.
Regarding `O=C(NCc1cccnc1Oc1ccc(F)c(F)c1)c1cc[n+]([O-])cc1`, the “% Inhibition” value worked out at 1% and the Z score is reported as -0.05.
For `COc1ccc2oc(CNC(=O)c3c[nH]nc3-c3cccc(F)c3)nc2c1`, in that order: -8% and 1.36.
On the same counts, the results for `OCCN(Cc1nnc(-c2cccnc2)o1)C1CCCCC1` are -9% and 0.88.
`O=C(Nc1ccc(F)cn1)N1CCC[C@H](c2nc(=O)[nH][nH]2)C1`: the “% Inhibition” value is -10% and the Z score is reported as 0.84.
For `COc1ccc(CN2C(=O)O[C@H]3CN(Cc4cccc(O)c4)C[C@H]32)cc1OC`, in that order: -6% and 0.74.
For `C[C@H]1Cc2ccc(F)cc2CN1S(=O)(=O)CC1CCOCC1`, in that order: -3% and 0.33.
On the same counts, the results for `COC(=O)c1nc(CCNc2cc(C#N)cnn2)sc1C` are -16% and 3.14.
As to `COCC1(C)CCN(C(=O)[C@@H](C)Cc2c(C)noc2C)CC1`, the “% Inhibition” value is recorded as -10% and the Z score was 1.07.
For the molecule `CC(C)CCn1cc([C@H](C(=O)O)N(C)Cc2ccc3c(c2)CN(C)C3)cn1`, the “% Inhibition” value is listed as -7% and the Z score worked out at 1.37.
For `CN(Cc1nc[nH]n1)Cc1ccccc1S(N)(=O)=O`, in that order: -3% and 0.46.
For `COC(=O)C1CCN(C(=O)C[C@H](C)Nc2cc(C)cc(C)c2)CC1`, in that order: -8% and 1.13.
On the same counts, the results for `COc1cc(C(=O)N(Cc2ccccn2)c2ccc(F)cc2F)on1` are 3% and -0.49.
For the molecule `Cn1nnc(CN2CCc3c(cccc3NS(C)(=O)=O)C2)n1`, the “% Inhibition” value is -10% and the Z score came to 1.83.
For `CC[C@H](NC(=O)c1cnn(CC)c1)c1cccc(C)n1`, in that order: 14% and -1.84.
On the same counts, the results for `O=C(NCCc1cccnc1)[C@H]1CCCN(c2nnc3ccc(C(F)(F)F)cn23)C1` are -14% and 1.58.
Turning to `CC1(C2(Nc3cc(C#N)ncn3)CC2)CC1`, the “% Inhibition” value is -3% and the Z score was determined as 0.67.
Consider `CC(NC(=O)C(C)N1CCCC1c1ccc2c(c1)OCCCO2)c1ccc(F)cc1` (stereo not given), for which the “% Inhibition” value came to 18% and the Z score is -2.43.
On the same counts, the results for `Cc1nc2c(s1)[C@@H](N(C)CCOc1ccc(C(=O)O)cc1Cl)CCC2` are 6% and -1.03.
With `CNC(=O)CN1CCC(NC(=O)c2ccc(-c3ccc(C)nn3)cc2)CC1`, the “% Inhibition” value is reported as -4% and the Z score is 0.51.
For `CCOc1cc(CNn2nnnc2N)cc(Br)c1OCC(=O)NC1CCCCC1`, in that order: -3% and 0.36.
For `CS(=O)(=O)CCN(CC1CC1)C1CCCCC1`, in that order: 14% and -1.64.
For `Cc1nnc(CN[C@H](c2ncc(C)s2)C2CC2)o1`, in that order: -10% and 1.12.
For `CCOC(=O)c1cn(Cc2c(F)cccc2Cl)c2nc(C)ccc2c1=O`, the “% Inhibition” value is recorded as 1% and the Z score is listed as -0.19.
For `CC(C)(CNC(=O)c1ccccc1)CNC1=NS(=O)(=O)c2ccccc21`, in that order: 31% and -3.46.
On the same counts, the results for `Cc1ccccc1-c1ncc(-c2nccn2CCS(=O)(=O)N(C)C)s1` are -10% and 1.82.
On the same counts, the results for `CC(C)[C@H](NC(=O)c1ccc(-n2cnnn2)cc1)c1nc2ccccc2n1C` are -9% and 1.21.
`CCc1ccccc1C(N)CNC(=O)N1CCCC(OC)CC1` (stereo not given): the “% Inhibition” value is listed as -8% and the Z score worked out at 1.27.
As to `Cc1n[nH]cc1CN(C)Cc1cnc(N2CCOCC2)nc1`, the “% Inhibition” value is 8% and the Z score is given as -1.23.
For `CCC(=O)Nc1ccc(F)c(NC(=O)N[C@@H](C)Cn2nc(C)cc2C)c1`, the “% Inhibition” value was found to be 6% and the Z score is listed as -1.09.
On the same counts, the results for `Cc1nn(C)cc1C(C)NC(=O)N1CCCC1Cc1ccc(F)cc1` (stereo not given) are -13% and 2.1.
For `Cc1noc(C)c1C(=O)NCc1ccc(N2CCCCC2)nc1`, in that order: 13% and -1.67.
For `CN(C)C(=O)c1cncc(NCCCC[C@H]2CCCO2)n1`, in that order: -1% and 0.13.
Take `Cc1ccncc1C(=O)N(C)[C@@H](C)CC(N)=O`: the “% Inhibition” value was -1% and the Z score was 0.19.
On the same counts, the results for `CCc1nn(-c2ccc(OC)cc2)c(Oc2ccc(F)cc2F)c1CN(CCOC)C(=O)c1ccco1` are 8% and -1.36.
On the same counts, the results for `Cc1nonc1CC(=O)NCCCn1ccnn1` are -4% and 0.49.
On the same counts, the results for `O=C(c1ccc(Br)o1)N1CC(N2CCCC2)C1` are -11% and 1.74.
Take `O=S1(=O)CC[C@H](N(CCO)Cc2c[nH]nc2-c2ccc(-c3ccccc3)cc2)C1`: the “% Inhibition” value was -1% and the Z score is on record as 0.1.
As to `CN1CCN2CCN(Cc3ccc(Cn4cccn4)cc3)C[C@H]2C1=O`, the “% Inhibition” value was -7% and the Z score is given as 1.07.
On the same counts, the results for `CCCCN1C(=O)[C@@H]2C[C@@H](O)CN2C2(CN(CC(C)C)C2)C1=O` are -10% and 1.82.
For `O=S(=O)(c1ccc(N2CCOCC2)c2nonc12)N1CCOCC1`, in that order: -7% and 1.25.
For `O=c1[nH]c2ccccc2n1C1CCN(S(=O)(=O)c2ccc(F)cc2)CC1`, in that order: 7% and -0.82.
Consider `CCOc1cncc(N[C@H]2c3ccccc3C[C@H]2O)n1`, for which the “% Inhibition” value is listed as -3% and the Z score was found to be 0.29.
For `O=C(NCc1ccc(Cl)s1)N1CCS(=O)(=O)CC1`, in that order: -2% and 0.31.
For `C=CCN1CC[C@H](N(C)S(=O)(=O)CCC(C)(C)C)C1=O`, in that order: 2% and -0.35.
On the same counts, the results for `N#Cc1ccc(NC2CC2)c(NC(=O)CS(=O)(=O)Cc2cccc(Br)c2)c1` are -9% and 1.32.
As to `CC(NC(=O)C1CCCO1)C1CCCO1` (stereo not given), the “% Inhibition” value is given as -4% and the Z score was 0.56.
In the case of `CC[C@H]1CCCCN1C(=O)Cn1c(=O)sc2c(C)cccc21`, the “% Inhibition” value stood at 0% and the Z score is 0.05.
Take `C[C@@]1(C(F)F)CN(CCOc2ccc(C(=O)O)cc2Cl)CCO1`: the “% Inhibition” value is -2% and the Z score stood at 0.35.
On the same counts, the results for `CCc1nsc(N2CCO[C@@H](C)C2)n1` are -17% and 2.06.
On the same counts, the results for `Cn1c(=O)c(C(=O)N2CCN(c3ccc(F)cc3)CC2)cc2cccnc21` are -14% and 1.85.
For `CC(C)(C)n1ncc2c(NC3(CO)CCCC3)ncnc21`, in that order: -9% and 0.9.
As to `CCCCNC(=O)NC[C@@H]1CCCC[C@@H]1N1CCOCC1`, the “% Inhibition” value is -2% and the Z score came to 0.32.
On the same counts, the results for `COCCn1nnnc1NC(=O)C1CCN(c2ccncc2C)CC1` are -10% and 1.74.
Take `Cn1c(CO)nnc1[C@H]1C[C@H](Nc2ncccc2C(=O)c2nccs2)C1`: the “% Inhibition” value is on record as -18% and the Z score worked out at 1.99.
For `CCOCCS(=O)(=O)NC(=O)c1cccc(C)n1`, in that order: -6% and 0.8.
On the same counts, the results for `COc1ccc(CC(=O)Nc2nnc([C@H]3CC(=O)N(c4ccc(OC(F)(F)F)cc4)C3)o2)cc1` are 11% and -1.66.
For `CC(C)c1ocnc1C(=O)NCc1cc2n(n1)CCN(S(C)(=O)=O)C2`, in that order: -1% and 0.15.
As to `CC(C)N1CC2(CCN(C(=O)Nc3ccc4c(c3)OCCO4)CC2)[C@H]1c1ccccc1`, the “% Inhibition” value turned out to be 5% and the Z score was -0.83.
For `CCS(=O)(=O)N1CCC[C@H](C(=O)NOCc2cccc(C)n2)C1`, in that order: -3% and 0.5.
`CN(Cc1ccc(F)cc1)C(=O)C[C@]1(c2cccc(F)c2)CC(=O)N(Cc2cccnc2)C1=O`: the “% Inhibition” value was -13% and the Z score came out at 1.83.
For `O=S(=O)(c1cccs1)N1CC[C@H](Nc2cccnc2)C1`, in that order: -12% and 1.57.
On the same counts, the results for `CC(=O)N1CC[C@H]2[C@H](CCCN2Cc2ccc(-c3ccco3)cc2)C1` are -4% and 0.58.
For `Cc1ccsc1CN(C)C(=O)C1(Oc2cccnc2C)CCNCC1`, in that order: -12% and 1.58.
For `O=C(NCCN1CCOCC1)c1cc(-c2ccc3c(c2)OCCO3)nc2ccccc12`, the “% Inhibition” value was -13% and the Z score is on record as 1.81.
`O=S(=O)(c1ccc(/C=C/c2ccccc2)cc1)N1CCOCC1`: the “% Inhibition” value is listed as -17% and the Z score is reported as 1.98.
`Cc1cc(C(=O)N2CC[C@H](CN)C2)c2ccc(Br)cc2n1`: the “% Inhibition” value is reported as -6% and the Z score is on record as 0.74.
For `Cc1cccnc1CCn1cnc(-c2ccccc2)c1-c1cccnc1`, in that order: 7% and -0.97.
For `C[C@H]1CNCCN1C(=O)c1coc2ccccc12`, in that order: 34% and -0.78.
On the same counts, the results for `O=C(Nc1nn(Cc2ccccc2)c2cccc(N3CCOCC3)c12)[C@H]1CCCO1` are -23% and 2.65.
For the molecule `Cc1cn([C@@H](C)c2ccccc2)nc1NC(=O)Cn1ncc(=O)c2ccccc21`, the “% Inhibition” value is listed as -15% and the Z score is 1.44.
For `Cc1ccc(C)c(OCCN2C(=O)N[C@@]3(CCCCc4ccccc43)C2=O)c1`, in that order: 5% and -1.14.
For `CCc1c(C)[nH]c2c(-c3ccccc3)c(-c3ccccc3)nn2c1=O`, in that order: -26% and 3.11.
On the same counts, the results for `CCn1c(-c2cc(NC(=O)COc3ccccc3)[nH]n2)cc2cc(OC)ccc21` are 13% and -1.77.
For the molecule `CC[C@H]1C(=O)NCCN1C(=O)Nc1ccc(OC)c(OC(C)C)c1`, the “% Inhibition” value amounted to 7% and the Z score is listed as -0.77.
On the same counts, the results for `Cc1ccc(CNC(=O)N2CCC3(CC2)[C@H](O)C[C@@H]3O)cc1` are -6% and 0.86.
As for `O=C(NC1CCCCCCC1)c1cccc(C(=O)NC2CCCCCCC2)c1`, the “% Inhibition” value is reported as 2% and the Z score is given as -0.3.
On the same counts, the results for `Cc1c(Cl)cccc1NC(=O)Cn1c(COc2ccccc2)nc2ccccc21` are 3% and -0.58.
On the same counts, the results for `COCCN(Cc1cccs1)[C@@H](C)C(=O)Nc1ccccn1` are 2% and -0.26.
Take `Cn1ncc(NC(=O)Cn2ccc(-c3ccc(F)c(F)c3)n2)n1`: the “% Inhibition” value worked out at 0% and the Z score is recorded as -0.09.
For `Oc1cc(-c2ccc(Cl)cn2)cc2c1OCCN(Cc1nccs1)C2`, in that order: -20% and 3.05.
On the same counts, the results for `O=c1ccccn1Cc1nc(C2CC2)nn1-c1cccc(Cl)c1` are 7% and -1.25.
As to `O=C(c1cn[nH]c1)N1CCC2(CCCC2)C1`, the “% Inhibition” value was -13% and the Z score was found to be 1.61.
`Cc1ccccc1-n1nc(C(=O)NCCC(C)C)nc1CCc1ccccc1`: the “% Inhibition” value came to 7% and the Z score was -1.16.
On to `Clc1cnc(N2CCc3cn[nH]c3C2)s1`, for which the “% Inhibition” value was -10% and the Z score is given as 1.99.
For `COc1ncccc1C(=O)N1CC[C@H](Oc2ccc3ccccc3n2)C1`, in that order: -7% and 1.41.
